Out of some 48,000 compounds screened, about 1,200 (2.5%) were called active. Roughly 2% stayed inconclusive and do not appear here.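 The calls were made as follows: active = activation of at least 60% and not above a set upper limit (about 1 call in 100 departs from these limits); inconclusive = activation of 40% to 60%, or above that upper limit; inactive = activation under 40%.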 This is one part of the list.

This assay concerns the target Probable G-protein coupled receptor 32 (Homo sapiens) (UniProt O75388). Nature of the assay: qHTS for Agonists of Human Resolvin D1 Receptor DRV1. The note with it: CHO-K1 GPR32 beta-arrestin PathHunter luminescence, 90 min; at 76.9 µM; stronger effect = higher value; zero percent set by DMSO-only wells. In outline: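 PathHunter enzyme-fragment complementation, CHO-K1 GPR32 stable line; 2,500 cells/well, overnight attach; cpd 90 min 37 °C 5% CO2; detection reagent 1 h RT; chemiluminescence. DMSO = EC0.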
UniProt O75388, sequence (O75388 whole entry, looked up, the tested form may be a part): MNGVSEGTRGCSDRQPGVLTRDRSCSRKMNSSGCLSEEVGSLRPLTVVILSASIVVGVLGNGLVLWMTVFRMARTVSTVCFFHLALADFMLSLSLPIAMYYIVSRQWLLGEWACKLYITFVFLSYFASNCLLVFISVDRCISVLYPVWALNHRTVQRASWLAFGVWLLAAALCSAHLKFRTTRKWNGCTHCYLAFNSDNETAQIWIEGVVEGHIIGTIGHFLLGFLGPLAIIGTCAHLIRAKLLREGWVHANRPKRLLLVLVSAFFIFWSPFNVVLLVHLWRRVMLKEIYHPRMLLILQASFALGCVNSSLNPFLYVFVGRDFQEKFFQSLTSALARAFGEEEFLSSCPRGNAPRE
For orientation: qHTS replaces the single test concentration by a dilution series.
For `Cc1ccc(NC(=O)CSCc2cnn(-c3ccccc3)c2-n2cccc2)c(Cl)c1`, the activation is inactive: -23.6%.

As for `COc1ccc(CCNc2nc3ccccc3c3nc(-c4cccc(C)c4)nn23)cc1OC`, the activation was inactive: -20.5%.

As for `COc1cc(Br)ccc1C1C(C(=O)Nc2ccc(C)cc2C)=C(C)Nc2nnnn21` (stereo not drawn), the activation is inactive: -14.2%.

For the compound `Cc1ccc(CCNC(=O)c2cccc(Nc3nc4ccccc4nc3-n3nc(C)cc3C)c2)cc1`, the activation was inactive: 4.88%.

On to `COc1ccc(S(=O)(=O)NCCc2sc(-c3cccc(C)c3)nc2C)cc1`, for which the activation is inactive: 20.3%.

Consider `CCOC(=O)c1ccc(NC(=O)CCc2c(C)nc3c(c(C)nn3C(C)(C)C)c2C)cc1`, for which the activation is inactive: 31.5%.

In the case of `Cc1nn(CC(=O)N2CCN(c3cccc(Cl)c3)CC2)c(=O)c2c1sc1ccccc12`, the activation was inactive: -5.48%.

Consider `CCc1ccc(-n2nc(C)c3c(C(=O)N4CCN(c5cccc(Cl)c5)CC4)cc(C)nc32)cc1`, for which the activation was inactive: -12.8%.

As for `COc1cc(OC)c(NC(=O)NCc2cccn2Cc2ccccc2)cc1Cl`, the activation is inactive: -24.2%.

With `CCOc1cc(C(=O)OCc2cc(=O)n3nc(C4CC4)sc3n2)cc(OCC)c1OCC`, the activation is inactive: -8.29%.

As to `CC(C)CCNC(=O)c1ccc(Cn2c(SCC(N)=O)nc3ccccc3c2=O)cc1`, the activation is inactive: 5.06%.

For the compound `O=C(Cn1c(=O)n(Cc2ccccc2)c(=O)c2sc3ccccc3c21)Nc1ccc(F)cc1`, the activation is inactive: -3.89%.

Take `CC1=C(C(=O)N2CCN(c3ccc(Cl)cc3)CC2)C2(CCC(C)CC2)OC1=O` (stereo not drawn): the activation is inactive: -12.7%.

As for `CCCCN(CC)CCCNC(=O)c1cc2c(=O)oc3ccc(C)cc3c2s1`, the activation was inactive: -28.3%.

Consider `CCCC(=O)Nc1ccc(OCC(O)CNC(C)C)c(C(C)=O)c1` (stereo not drawn), for which the activation is inactive: -9.6%.

For `Cc1ccc(C)c(Cn2c(=O)n(CCCC(=O)NCCc3ccc(Cl)cc3)c(=O)c3ccccc32)c1`, the activation is inactive: -0.443%.

Take `COc1ccc(-c2nc3sc(CCNC(=O)C(=O)Nc4ccc(C)c(C)c4)c(C)n3n2)cc1`: the activation was inactive: -6.77%.

With `CCOC(=O)c1cc(-c2ccccc2)n(CC(=O)NCc2ccccc2)c1C`, the activation was inactive: -13.9%.

As for `O=C(COc1ccc(Cl)cc1)NCC(c1cccs1)S(=O)(=O)c1ccc(F)cc1` (stereo not drawn), the activation was inactive: 35.6%.

With `CCOC(=O)c1ccc(NC(=O)CC2C(=O)N(c3cccc(C)c3)C(=O)N2CCOC)cc1` (stereo not drawn), the activation is inactive: 10%.

Take `CCOc1ccc(-c2nonc2NC(=O)c2ccco2)cc1OCC`: the activation was inactive: -8.35%.

On to `CC(C)c1ccc(NC(=O)c2cnc3sc(N4CCCC4)nn3c2=O)cc1`, for which the activation is inactive: -4.75%.

`CCOc1ccccc1CNC(=O)c1cc2c(=O)n(Cc3ccco3)ccc2nc1C`: the activation was inactive: -9.57%.

With `COc1ccc(OC)c(-c2csc(-c3c(N)c(C(=O)c4ccc(Cl)cc4)n4ccccc34)n2)c1`, the activation was inactive: 10.3%.

Turning to `CCOc1cc(CNC(=O)NC2COc3ccccc3C2)cc(OCC)c1OCC` (stereo not drawn), the activation was inactive: -14.1%.

In the case of `Cc1ccc(OCC(=O)Nc2nnc(SCc3cc(=O)n4cccc(C)c4n3)s2)cc1`, the activation was inactive: -7.71%.

As for `COc1cc(NC(=O)CN2CCCN(S(=O)(=O)c3ccc(F)cc3)CC2)cc(OC)c1`, the activation was inactive: 11%.

`O=C(Nc1ccccc1Br)c1cc(S(=O)(=O)NC2CCCCC2)ccc1F`: the activation was inactive: -31.5%.

With `C=CCc1cccc2cc(-c3nc4ccc(C(=O)O)cc4[nH]3)c(=O)oc12`, the activation was inactive: 16.1%.

For the compound `Cc1ccc2nc(-c3ccc(NC(=O)COc4ccccc4C(C)(C)C)cc3)sc2c1`, the activation is inactive: 8.28%.

Turning to `CCOC(=O)c1cc(S(=O)(=O)Nc2c(C)cc(C)cc2C)[nH]n1`, the activation was inactive: -15.5%.

Turning to `CCOCCCNC(=O)c1ccc(Cn2c(=O)c3cccn3c3cccnc32)cc1`, the activation was inactive: -2.35%.

In the case of `Cc1ccc(C)c(NC(=O)C2CCCN2S(=O)(=O)c2ccc3c(c2)n(C)c(=O)c(=O)n3C)c1` (stereo not drawn), the activation is inactive: -8.59%.

For the compound `COc1ccc(C2C(C(=O)Nc3cccnc3)=C(C)Nc3nc(SCc4ccccc4)nn32)cc1` (stereo not drawn), the activation is inactive: 0.433%.

Take `CCOC(=O)N1CCN(c2ncc3c(n2)CC(c2ccc(Cl)cc2)CC3=O)CC1` (stereo not drawn): the activation is inactive: 11.1%.

For `CC(=O)NC(C)c1nc2ccccc2n1Cc1ccccc1Cl` (stereo not drawn), the activation is inactive: -16.8%.

For `COc1ccc(-c2noc(-c3cc(-c4ccc(F)cc4)n[nH]3)n2)cc1`, the activation is inactive: 15.2%.

With `O=C(NCc1ccc(F)cc1)c1nnc(Cc2cccc(F)c2)o1`, the activation was inactive: -2.55%.

Turning to `CCOc1ccc(NC(=O)Nc2cc3c(cc2N2CCCCC2)n(C)c(=O)n3C)cc1`, the activation is active: 107%.

For `CCOC(=O)CCCCN(Cc1ccccc1F)S(=O)(=O)c1ccc(F)c(C(=O)Nc2cc(Cl)cc(Cl)c2)c1`, the activation is inactive: -23.3%.

In the case of `COc1cc(-c2noc(-c3ccc(NC4CCCC4)c([N+](=O)[O-])c3)n2)cc(OC)c1OC`, the activation is inactive: -14.7%.

In the case of `CN(c1ccc(F)cc1)S(=O)(=O)N1CCCC(C(=O)NCCc2ccccc2)C1` (stereo not drawn), the activation was inactive: -5.88%.

With `COc1ccc(C2=NC(C)(C)N(CC(=O)Nc3cc(OC)cc(OC)c3)C2=O)cc1`, the activation was inactive: -25.6%.

As for `Cc1ccc(-c2cc3nccc(-c4cc([N+](=O)[O-])ccc4O)n3n2)cc1`, the activation was inactive: -42.8%.

Take `CCN1CCN(c2cc(C)c3cc(NC(=O)/C=C/c4cccc(OC)c4OC)ccc3n2)CC1`: the activation was inactive: -14.7%.

As for `CCCOc1ccc(-c2nc3ccc(Br)cc3c(=O)o2)cc1`, the activation was inactive: 18.4%.

`CCCCNC(=O)CSc1nc2n[nH]c(C)c2c(=N)n1-c1cccc(C)c1`: the activation is inactive: -12.7%.

For the compound `CCOC(=O)C1CCN(C(=O)c2ccc3c(c2)sc2nc(-c4ccc(OC)cc4)cn23)CC1`, the activation is inactive: -0.0722%.

As for `CCOc1ccc(S(=O)(=O)NCc2nc3cccnc3n2Cc2ccccc2OC)cc1`, the activation was inactive: -20.1%.

Take `Cc1c(C(=O)OC2CCCCCC2)[nH]c2c1C(=O)CC(c1ccccc1)C2` (stereo not drawn): the activation was active: 78.6%.

Take `Cc1nc2ccc(S(=O)(=O)NC(CC(C)C)C(=O)NCc3ccc(Cl)cc3)cc2s1` (stereo not drawn): the activation was inactive: -13.1%.

With `CCCc1nnc(NC(=O)Cc2coc3c(C)c(C)ccc23)s1`, the activation is inactive: -0.0309%.

For `Cc1cccc(OCC(=O)Nc2ccc3c(c2)nc(CN2CCCCC2)n3C)c1`, the activation is inactive: 7.19%.

With `Cc1ccc(-n2ncc3c(N4CCN(Cc5ccccc5)CC4)ncnc32)cc1Cl`, the activation is inactive: 16.4%.

For `CCc1cc(=O)[nH]c(SCc2nc(-c3cccc(Cl)c3)no2)n1`, the activation was inactive: 7.47%.

On to `CC(C)c1ccc(NC(=O)C2CCCN2S(=O)(=O)c2ccc3nc(-c4ccccc4)[nH]c3c2)cc1` (stereo not drawn), for which the activation is inactive: -0.0263%.

As for `O=C(COCc1cc(-c2cccs2)on1)NCc1ccc(F)cc1`, the activation was inactive: -8.63%.

With `O=C(Nc1ccc(Cl)cc1)c1ccc(-n2cnnc2)cc1`, the activation is inactive: -7.7%.

Turning to `CCOCCCn1c(SCC(=O)Nc2ccc(CC)cc2)nc2ccccc2c1=O`, the activation was inactive: -24.7%.

Take `COc1ccc(C(=O)N(Cc2sccc2C)C2CCS(=O)(=O)C2)cc1` (stereo not drawn): the activation was inactive: -13.3%.

In the case of `COc1cc(NC(=O)Cn2ccc3ccccc3c2=O)cc(OC)c1OC`, the activation is inactive: 21.8%.

Consider `Cc1ccc(-n2ncc(C(=O)NCCN3CCN(C)CC3)c2C2CCN(C(=O)OC(C)(C)C)CC2)cc1`, for which the activation was inactive: 0.0845%.

Regarding `CCc1ccc(C2C(C(=O)Nc3ccccc3OC)=C(C)Nc3nc(SCc4ccccc4)nn32)cc1` (stereo not drawn), the activation is inactive: -2.38%.

Take `CCOc1ccc(CNC(=O)CN2N=C(c3ccccc3)CCC2=O)cc1OC`: the activation was inactive: -19.5%.

For the compound `Cc1ccc(CNC(=O)CSc2nc3ccsc3c(=O)n2-c2ccc(Br)cc2)cc1`, the activation was inactive: -13.2%.

In the case of `Cn1c(C(=O)NCCc2ccccc2)cc2sc(Cl)cc21`, the activation was inactive: -8.16%.

Take `Cc1nc(C)c(-c2ccc(SCC(=O)Nc3cccc(C)c3C)nn2)s1`: the activation is inactive: -7%.

Regarding `CCCc1ccc(NC(=O)C2CCCN(c3cnccn3)C2)cc1` (stereo not drawn), the activation is inactive: -0.657%.

For the compound `CCOc1cc(CNC(=O)Cn2ncn3c(cc4cc(F)ccc43)c2=O)cc(OCC)c1OCC`, the activation was inactive: 21%.

With `CCc1ccc(NC(=O)C2CCN(S(=O)(=O)c3cccc(-c4noc(C)n4)c3)CC2)cc1`, the activation is inactive: -9.39%.

For the compound `Cc1ccc(Cn2c(CNC(=O)c3ccc(Cl)c([N+](=O)[O-])c3)nc3cccnc32)cc1`, the activation is inactive: -25.3%.

With `Cc1ccccc1C(=O)NNc1ncnc2c1cnn2-c1cccc(Cl)c1`, the activation is inactive: -0.92%.

For the compound `CC(=O)c1ccc(NC(=O)CC2Nc3cc(C)c(C)cc3NC2=O)cc1` (stereo not drawn), the activation was inactive: -15.3%.

Take `Cc1noc(C)c1S(=O)(=O)N(CC(=O)NCCc1ccc(Cl)cc1)c1ccc(C(C)C)cc1`: the activation is inactive: 1.79%.

In the case of `CCC1Oc2ccc(C)cc2N(CC(=O)N2CCN(c3ccccc3OC)CC2)C1=O` (stereo not drawn), the activation was inactive: -12.2%.

Take `COc1cccc(-c2oc3ccc(C)cc3c(=O)c2O)c1`: the activation is inactive: -4.77%.

Consider `CCOc1ccc(Nc2nc(C)c(NC(=O)c3cccc(F)c3)c(Nc3ccc(OCC)cc3)n2)cc1`, for which the activation was inactive: -32.7%.

Regarding `Cc1ccc(NC(=O)CSc2nc3c(sc4ccccc43)c(=O)n2CCCC(=O)NC2CCCC2)cc1C`, the activation is inactive: -7.07%.

On to `COc1cccc(CNC(=O)c2cc3c(=O)n(Cc4cccnc4)ccc3nc2C)c1`, for which the activation was inactive: 1.61%.

On to `COc1ccc(C(=O)Nc2nnc(S(=O)(=O)N3CCN(c4ccc(F)cc4)CC3)s2)cc1`, for which the activation is inactive: -0.186%.

As for `COc1ccc(C(=O)Nc2nnc(S(=O)(=O)N(C)c3ccc(C)cc3)s2)cc1`, the activation was inactive: -6.02%.

Consider `CCc1cccc(NC(c2ccccc2)c2nnc(-c3ccccc3F)o2)c1` (stereo not drawn), for which the activation is inactive: -34.1%.

For `COc1ccccc1CNC(=O)CN(c1ccccc1OC)S(C)(=O)=O`, the activation is inactive: -8.99%.

The record behind these values is PubChem BioAssay AID1346428 (National Center for Advancing Translational Sciences (NCATS), 2018).
